# Measured values published in paper PMC4336329 (PLoS ONE, 2015).
# Screen size: about 310,000 compounds; about 14,000 (4.5%) showed an effect of 50% or more. Effects have a minus sign here. This is one part of the list. Where a SMILES comes first, the peptide text is derived from it. [ ]: non-standard residue; d: D form. pGlu = O=C1CC[CH](C(=O)O)N1
# Target: human ether-à-go-go-related gene (hERG) potassium channel (human, UniProt Q12809)
# Assay: primary screen, population patch clamp on CHO cells stably expressing hERG
# 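Also: peak tail current of the secondary pulse compared with the same well before compound.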
# human ether-à-go-go-related gene (hERG) potassium channel, sequence (Q12809 whole entry, looked up): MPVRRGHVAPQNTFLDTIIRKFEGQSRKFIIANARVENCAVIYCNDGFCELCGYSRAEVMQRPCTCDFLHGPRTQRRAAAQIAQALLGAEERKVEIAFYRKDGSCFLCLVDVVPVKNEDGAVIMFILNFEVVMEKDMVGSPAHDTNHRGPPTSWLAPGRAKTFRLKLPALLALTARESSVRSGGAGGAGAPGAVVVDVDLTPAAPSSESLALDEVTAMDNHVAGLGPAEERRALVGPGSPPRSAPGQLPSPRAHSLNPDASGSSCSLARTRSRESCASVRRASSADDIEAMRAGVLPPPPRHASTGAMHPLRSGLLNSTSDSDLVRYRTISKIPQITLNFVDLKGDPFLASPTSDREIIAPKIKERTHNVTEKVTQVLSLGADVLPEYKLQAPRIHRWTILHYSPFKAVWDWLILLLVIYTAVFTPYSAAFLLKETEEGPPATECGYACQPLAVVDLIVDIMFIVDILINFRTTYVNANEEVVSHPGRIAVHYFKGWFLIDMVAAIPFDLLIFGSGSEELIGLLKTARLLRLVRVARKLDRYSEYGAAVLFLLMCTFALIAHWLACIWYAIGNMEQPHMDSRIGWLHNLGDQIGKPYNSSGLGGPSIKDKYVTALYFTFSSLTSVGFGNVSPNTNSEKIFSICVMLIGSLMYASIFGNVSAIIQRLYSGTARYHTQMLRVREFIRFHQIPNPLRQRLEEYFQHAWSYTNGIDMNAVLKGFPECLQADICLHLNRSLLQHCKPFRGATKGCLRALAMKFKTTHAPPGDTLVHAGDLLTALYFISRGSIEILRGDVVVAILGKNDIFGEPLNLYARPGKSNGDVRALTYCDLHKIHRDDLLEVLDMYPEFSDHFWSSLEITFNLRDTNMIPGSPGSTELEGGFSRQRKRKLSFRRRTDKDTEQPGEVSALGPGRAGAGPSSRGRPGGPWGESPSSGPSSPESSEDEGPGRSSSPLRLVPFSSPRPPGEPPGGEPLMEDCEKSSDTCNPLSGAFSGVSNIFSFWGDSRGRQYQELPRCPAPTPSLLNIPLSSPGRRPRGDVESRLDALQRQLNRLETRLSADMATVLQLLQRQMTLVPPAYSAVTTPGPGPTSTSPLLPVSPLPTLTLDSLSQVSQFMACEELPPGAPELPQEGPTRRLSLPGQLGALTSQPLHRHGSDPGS
row,Structure (SMILES),"hERG current change (%, negative = inhibition) at 10uM [%]"
1,Cc1ccccc1-n1c([O-])c([C@@H](c2cc[nH+]cc2)c2c(O)n(-c3ccccc3C)c(=O)[nH]c2=O)c(=O)[nH]c1=O,16.1
2,CCCOc1ccc(C(=O)CCC(=O)NNC(=O)Cn2nc(C)cc2C)cc1,11.3
3,Cc1ccc(NC(=O)CNC(=O)c2ccco2)nc1,17.3
4,O=C(CNc1cccc(C(F)(F)F)c1)N/N=C/c1cccc(Br)c1,18.5
5,COc1ccccc1N1C(=O)CCC1(C#N)c1ccc(Br)cc1 (stereo not drawn),-11.2
6,O=C(COC(=O)c1cc(F)cc(F)c1)NCCCc1ccccc1,13.3
7,CCCCN(C(=O)NC(=O)Nc1ccccc1OC)S(C)(=O)=O,-2.42
8,CC(=O)c1c(C(C)=O)c(C)n(-c2ccc(O)cc2)c1C,-5.11
9,CCOC(=O)N1CCN(c2nc(-c3ccccc3)c3ccccc3n2)CC1,5.1
10,CCOC(=O)c1cc(NC(=O)CC(C)(C)CC(=O)O)ccc1N1CCCCC1,11.8
11,O=c1cc(-c2ccccc2)[nH]n1-c1ccc([N+](=O)[O-])cc1,6.67
12,Cc1ccc(C)c(NC(=O)CC2Oc3ccccc3NC2=O)c1 (stereo not drawn),8.97
13,CCC/C=N/Nc1nnc(Cc2ccc(OC)c(OC)c2)c(=O)[nH]1,27.2
14,COc1ccc(CNC(=O)CN(C(=O)c2csnn2)c2ccccc2F)cc1,4.22
15,C/C(N)=C(/C#N)C(=O)COC(=O)c1cc2c(s1)CCCC2,-27.1
16,CC(=O)Nc1ccc(C(=O)CSc2nnc(Cc3ccccc3)o2)cc1,-7.75
17,CCOC(=O)c1ccc(NC(=O)CSc2nnc(C)n2-c2ccccc2)cc1,-7.51
18,O=C(N1CCCC1)C12CC3CC(CC(C3)C1)C2,3.47
19,O=C(/C=C/c1ccco1)Nc1ccccc1N1CCOCC1,3.68
20,O=C(N/N=C\C=C\c1ccc2c(c1)OCO2)C1COc2cc3ccccc3cc2O1 (stereo not drawn),3.33
21,CCOC(=O)CN1C(=O)N[C@@H](CCc2ccccc2)[C@H](C(=O)OC)[C@H]1C,9.57
22,COc1cc2c(=O)n(-c3ccc(C)cc3)c(=O)n(CC(=O)c3ccc4c(c3)OCO4)c2cc1OC,-0.013

row,Structure (SMILES),"hERG current change (%, negative = inhibition) at 10uM [%]"
1,Cc1ccc(-c2csc(Cc3nc(-c4ccc5c(c4)CCC(=O)N5)cs3)n2)cc1,3.34
2,CCn1cc(C(=O)N[C@H](C(=O)NCCN2CCOCC2)C(C)C)c(=O)c2cc3c(cc21)OCO3,18.2
3,COc1ccc(CCC(=O)NCCS(=O)(=O)N2CCN(c3ccccc3OC)CC2)cc1,-8.87
4,COc1ccc(N2CCN(C(=O)C3CCCN(S(=O)(=O)c4ccc5c(c4)oc(=O)n5C)C3)CC2)cc1 (stereo not drawn),4.47
5,CCOC(=O)c1ccccc1NC(=O)CN(c1ccccc1OC)S(C)(=O)=O,0.428
6,CN1C[C@H](CO)C=C2c3cccc4[nH]cc(c34)C[C@H]21,4.32
7,CCOc1nc(CC(C)C)c2c(c1C#N)CC(C)(C)OC2,1.14
8,Cn1c(=O)oc2cc(S(=O)(=O)N3CCN(c4ccc(F)cc4)CC3)ccc21,-12.5
9,Cc1ccc(OCC(=O)Nc2ccc(Cl)cc2)c([N+](=O)[O-])n1,-13.4
10,COc1ccc(OC)c(C2C(C(=O)c3cccs3)=C(O)C(=O)N2CCN(C)C)c1 (stereo not drawn),13.3
11,CN1CCN(S(=O)(=O)CC2(C)C3CCC2(C)C(=O)C3Br)CC1 (stereo not drawn),14.7
12,CC1=CC(C)(C)Nc2ccccc21.Cl,12.1
13,COc1cccc(N2C(=O)C3CCCN3C2c2ccc(Cl)cc2)c1 (stereo not drawn),-1.05
14,Cc1cccc(OCC(=O)NCCNC(=O)c2cnccn2)c1,13.7
15,O=C(CCl)NCCCN(C(=O)C(Cl)Cl)c1ccc([N+](=O)[O-])cc1,-27.2
16,O=C(Nc1ccccc1)C1CC(=O)N(Cc2ccccc2)C1 (stereo not drawn),2.14
17,CCN1CCN(c2nc3ccccc3nc2C(C#N)S(=O)(=O)c2ccc(C)cc2)CC1 (stereo not drawn),-18.5
18,CN(Cc1nc(-c2ccccn2)no1)S(=O)(=O)c1ccccc1,11.4
19,COc1ccc(-n2nnnc2SCC(=O)Nc2cc(OC)c([N+](=O)[O-])cc2C)cc1,42.4
20,CC(=O)Nc1nnc(SCC(=O)NCCOc2ccccc2)s1,4.18
21,Cc1ccc(N=C(N(C)C)P(=O)(N(C)C)N(C)C)cc1,17.4
22,Cc1cccc(NC(=O)c2ccc(S(=O)(=O)N3CCCCC3)cc2)n1,-6.69

row,Structure (SMILES),"hERG current change (%, negative = inhibition) at 10uM [%]"
1,COc1cccc(NC(=O)c2oc3ccc(S(=O)(=O)N4CCOCC4)cc3c2C)c1,3.95
2,CCOc1cc(C(=O)N2CCC(CC3CC(c4ccc(Cl)cc4)=NO3)(C(=O)NCC3CCCCC3)CC2)cc(OCC)c1OCC (stereo not drawn),1.25
3,N/C(=N\c1nc2ccccc2o1)NC(=O)c1ccccc1,10.5
4,CCC(=O)N1CCc2cc(Br)cc(S(=O)(=O)N3CCCCC3CC)c21 (stereo not drawn),0.791
5,Cc1cccc(OCC(=O)N(Cc2ccco2)C2CCS(=O)(=O)C2)c1 (stereo not drawn),-25.3
6,Cc1ccccc1NC(=O)Cc1nc(COC(=O)CCc2ccccc2)cs1,-4.83
7,COc1cccc(C(=O)Nc2cccc(S(=O)(=O)NC3=NCCC3)c2)c1,8.06
8,CCCCN(C(=O)c1cc2c(s1)CCCCC2)c1c(N)n(CCC)c(=O)[nH]c1=O,16
9,Cc1cc(C)c(S(=O)(=O)N2CCOCC2)cc1NS(=O)(=O)c1cc(OCC(N)=O)c(C)cc1Cl,6.6
10,Cc1ccc(C2(c3noc(CN4C[C@@H](C)O[C@@H](C)C4)n3)CCCC2)cc1,14.3
11,O=C(NNC(=O)C1C2CCC(C2)C1C(=O)O)c1cccc(Cl)c1 (stereo not drawn),3.82
12,COC(=O)Cn1cc(/C=N/NC(=O)COc2cccc3cccnc23)c2ccccc21,-17.6
13,O=C(CCSc1nnc2ccccn12)Nc1ccc(F)cc1,-8.83
14,Cl.N=C(c1ccc([N+](=O)[O-])cc1)N1CCCCCC1,-8.91
15,Cn1cc(CNC(=O)c2sc3cccc(Cl)c3c2Cl)cn1,-7.27
16,O=C(CCCn1c(SCC(=O)c2ccc(F)cc2)nc2ccccc2c1=O)NCc1ccco1,5.7
17,O=C(CS(=O)(=O)c1cn(CC(=O)N2CCOCC2)c2ccccc12)Nc1ccccc1F,0.801
18,Cc1nn(C)cc1C(=O)c1ccccc1,15.8
19,COc1ccc2oc(C(=O)OCC(=O)/C(C#N)=C(\C)N)c(C)c2c1,13.8
20,CCOC(=O)c1sc(NC(=O)C2CC(=O)N(c3ccccc3OC)C2)nc1C (stereo not drawn),-9.02
21,O=C(N/N=C/c1ccccc1)c1cc(-c2ccc3c(c2)OCO3)n[nH]1,16
22,COCCCN1C(=O)C(=O)/C(=C(/O)c2ccc3c(c2)OCCO3)C1c1ccc(C(=O)OC)cc1 (stereo not drawn),1.43

row,Structure (SMILES),"hERG current change (%, negative = inhibition) at 10uM [%]"
1,C=CCn1c(SCC(=O)Nc2nc(C)cs2)nnc1C(CO)NC(=O)c1ccccc1 (stereo not drawn),2.67
2,CC(C)CC(NC(=O)C(CO)NC(=O)C1CCC(=O)N1)C(N)=O (stereo not drawn) ([pGlu]-Ser-Leu-NH2; configuration not given here),18.5
3,Br.CC1CCN(Cc2nnnn2-c2cccc([N+](=O)[O-])c2)CC1,-10.8
4,Cc1csc(Nc2ccccc2)n1,14.5
5,Cc1nc(/C(N)=N/OC(=O)c2ccccc2Cl)c(C(F)(F)F)o1,5.8
6,CC(=O)OC(COc1ccccc1)Cn1cnc2cc(C)c(C)cc21.Cl (stereo not drawn),1.16
7,CCOC(=O)c1sc(NC(=O)CSCc2c(C)noc2C)nc1C,-16.3
8,Cc1cccc(CSc2nnc(CCCCCNC(=O)OC(C)(C)C)o2)c1,-13.3
9,O=C(OCC(=O)c1ccc[nH]1)c1ccccc1,9.09
10,CCOC(=O)CSc1nc2c(sc(=S)n2-c2ccccc2OC)c(=O)n1-c1ccccc1OC,7.71
11,C=CCc1cc(Cl)ccc1OCCCNCCO.O=C(O)C(=O)O,-27.1
12,COc1ccc(OC)c(S(=O)(=O)n2nc(-c3ccccc3)cc2N)c1,-7.94
13,C=CCSc1nc2nc(C)cc(C)n2n1,2.28
14,NNc1nc2sc3c(c2c(=O)n1Cc1ccccc1)CCC3,-4.1
15,CC(C)C(=O)c1c(C(C)C)nn2ccccc12,5.59
16,Clc1ccc(Cc2ccccc2)nn1,4.59
17,CCOC(=O)c1ccc(Nc2cc3ccccc3c(=O)[nH]2)cc1,6.7
18,CC(C)N(CCNC(=O)COc1ccc2oc3c(c2c1)CCCC3)C(C)C,-73.3
19,Cc1cc2c(cc1C)CSC(c1c(O)ccc3ccccc13)SC2,32.3
20,O=C(CSc1ncccn1)c1ccccc1Br,-14.4
21,CCOC(=O)c1ccccc1NC(=O)c1cc(S(=O)(=O)N2CCOCC2)ccc1F,-5.63
